Assay [1] has as its target 3XFLAG-tagged IKKγ (NEMO) (UniProt Q9Y6K9). The experiment in a line: co-IP; HEK293T/TLR7 cells transfected with FLAG-IKKγ or TRAF6 and PP1-γ, stimulated with R848 (10 µM) for 30 min; lysates immunoprecipitated for FLAG (anti-FLAG M2 agarose), immunoblotted for PP1-γ (Figure 4B). On the technique in general: A western blot detects proteins with antibodies after separation by electrophoresis.

The chains behind the UniProt entries cited, without tags or fusion partners.
UniProt Q9Y6K9: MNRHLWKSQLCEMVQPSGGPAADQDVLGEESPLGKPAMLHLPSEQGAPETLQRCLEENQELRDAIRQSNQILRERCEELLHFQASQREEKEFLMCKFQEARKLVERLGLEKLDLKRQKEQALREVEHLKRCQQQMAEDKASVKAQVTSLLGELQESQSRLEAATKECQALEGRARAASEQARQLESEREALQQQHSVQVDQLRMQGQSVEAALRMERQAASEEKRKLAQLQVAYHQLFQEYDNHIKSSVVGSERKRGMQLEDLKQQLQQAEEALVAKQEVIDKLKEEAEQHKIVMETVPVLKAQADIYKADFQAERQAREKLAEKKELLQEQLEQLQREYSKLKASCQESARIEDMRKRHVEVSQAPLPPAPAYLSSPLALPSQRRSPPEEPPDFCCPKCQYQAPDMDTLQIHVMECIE
UniProt P36873: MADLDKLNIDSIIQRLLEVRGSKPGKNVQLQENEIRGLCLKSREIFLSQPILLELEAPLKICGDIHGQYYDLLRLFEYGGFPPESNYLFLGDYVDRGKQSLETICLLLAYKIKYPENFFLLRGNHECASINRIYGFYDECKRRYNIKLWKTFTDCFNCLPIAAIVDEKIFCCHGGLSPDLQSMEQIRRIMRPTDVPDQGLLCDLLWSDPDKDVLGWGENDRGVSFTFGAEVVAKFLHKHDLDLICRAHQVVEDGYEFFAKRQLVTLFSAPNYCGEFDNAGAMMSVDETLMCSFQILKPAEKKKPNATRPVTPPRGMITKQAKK

The target of assay [2] is T1, FLAG-TRAF6 1–410 (partial TRAF-C domain mutant) (UniProt Q9Y4K3).
T1 sequence: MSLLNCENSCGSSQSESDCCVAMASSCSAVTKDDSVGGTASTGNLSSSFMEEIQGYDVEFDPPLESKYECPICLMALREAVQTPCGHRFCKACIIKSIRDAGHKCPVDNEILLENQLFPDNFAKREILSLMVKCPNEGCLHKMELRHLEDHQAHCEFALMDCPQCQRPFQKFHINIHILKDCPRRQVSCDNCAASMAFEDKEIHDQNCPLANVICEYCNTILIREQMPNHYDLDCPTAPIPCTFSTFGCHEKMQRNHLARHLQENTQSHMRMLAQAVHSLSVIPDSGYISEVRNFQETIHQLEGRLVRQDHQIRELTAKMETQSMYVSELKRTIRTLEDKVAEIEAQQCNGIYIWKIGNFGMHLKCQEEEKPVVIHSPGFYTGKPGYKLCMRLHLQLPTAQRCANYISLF
Put plainly: co-IP; HEK293T cells co-transfected with full length TRAF6 or FLAG-tagged truncation mutants and 1 ug of PP1-γ WT; FLAG immunoprecipitation, immunoblot with a PP1-γ antibody (Figure 4E).

For assay [3], the target named is gamma catalytic subunit of protein phosphatase 1 (PP1-γ), endogenous (human (endogenous in HEK293T)) (UniProt P36873). Put plainly: co-IP; unpublished observations: endogenous interaction of endogenous proteins; cells and details not stated.
The target is the same in assay [4]. The experiment in a line: co-IP; HEK293T cells transfected with 3X-FLAG tagged plasmids; endogenous PP1-γ immunoprecipitated from whole cell lysate (ProteinG Sepharose, overnight at 4°C; lysis buffer 50 mM Tris-HCl pH 7.4, 250 mM NaCl, 1 mM EDTA, 1% Triton-X 100); immunoblot with anti-FLAG or anti-PP1-γ (Figure 4A).
Assay [5] shares this target. The experiment in a line: co-IP; told only in the discussion, which points to Figure 4A; the legend of Figure 4A does not name TAK1.

From publication PMC3930702 come the findings set out here.

Results are given in words; binding and its absence hold for the method and conditions named. Binding seen in cells or lysates may run through a third protein. Some results given as binding are weak or reduced against the parent protein; the word gives no strength. For some of these results: Tags and fused reporters may be left off the sequences shown.

“PP1-γ WT (ectopically expressed) (from UniProt P36873 1-323) (enzyme)”: the binding result in assay [1] and in assay [2] was “binds” throughout.

Turning to “IKKγ (NEMO), endogenous (from UniProt Q9Y6K9 1-419)”, the binding result in assay [3] is reported as “binds”.

In the case of “3XFLAG-tagged IKKγ (NEMO) (from UniProt Q9Y6K9 1-419)”, the binding result in assay [4] is listed as “binds”.

B1: TAK1 (TGF-β-activated kinase 1) (protein, UniProt O43318 1-606)
chain: MSTASAASSSSSSSAGEMIEAPSQVLNFEEIDYKEIEVEEVVGRGAFGVVCKAKWRAKDVAIKQIESESERKAFIVELRQLSRVNHPNIVKLYGACLNPVCLVMEYAEGGSLYNVLHGAEPLPYYTAAHAMSWCLQCSQGVAYLHSMQPKALIHRDLKPPNLLLVAGGTVLKICDFGTACDIQTHMTNNKGSAAWMAPEVFEGSNYSEKCDVFSWGIILWEVITRRKPFDEIGGPAFRIMWAVHNGTRPPLIKNLPKPIESLMTRCWSKDPSQRPSMEEIVKIMTHLMRYFPGADEPLQYPCQYSDEGQSNSATSTGSFMDIASTNTSNKSDTNMEQVPATNDTIKRLESKLLKNQAKQQSESGRLSLGASRGSSVESLPPTSEGKRMSADMSEIEARIAATTAYSKPKRGHRKTASFGNILDVPEIVISGNGQPRRRSIQDLTVTGTEPGQVSSRSSSPSVRMITTSGPTSEKPTRSHPWTPDDSTDTNGSDNSIPMAYLTLDHQLQPLAPCPNSKESMAVFEQHCKMAQEYMKVQTEIALLLQRKQELVAELDQDEKDQQNTSRLVQEHKKLLDENKSLSTYYQQCKKQLEVIRSQQQKRQGTS
As to B1, the binding entry in assay [5] is “binds”.

B2: 3XFLAG-tagged TBK1 (protein, UniProt Q9UHD2 1-729)
chain: MQSTSNHLWLLSDILGQGATANVFRGRHKKTGDLFAIKVFNNISFLRPVDVQMREFEVLKKLNHKNIVKLFAIEEETTTRHKVLIMEFCPCGSLYTVLEEPSNAYGLPESEFLIVLRDVVGGMNHLRENGIVHRDIKPGNIMRVIGEDGQSVYKLTDFGAARELEDDEQFVSLYGTEEYLHPDMYERAVLRKDHQKKYGATVDLWSIGVTFYHAATGSLPFRPFEGPRRNKEVMYKIITGKPSGAISGVQKAENGPIDWSGDMPVSCSLSRGLQVLLTPVLANILEADQEKCWGFDQFFAETSDILHRMVIHVFSLQQMTAHKIYIHSYNTATIFHELVYKQTKIISSNQELIYEGRRLVLEPGRLAQHFPKTTEENPIFVVSREPLNTIGLIYEKISLPKVHPRYDLDGDASMAKAITGVVCYACRIASTLLLYQELMRKGIRWLIELIKDDYNETVHKKTEVVITLDFCIRNIEKTVKVYEKLMKINLEAAELGEISDIHTKLLRLSSSQGTIETSLQDIDSRLSPGGSLADAWAHQEGTHPKDRNVEKLQVLLNCMTEIYYQFKKDKAERRLAYNEEQIHKFDKQKLYYHATKAMTHFTDECVKKYEAFLNKSEEWIRKMLHLRKQLLSLTNQCFDIEEEVSKYQEYTNELQETLPQKMFTASSGIKHTMTPIYPSSNTLVEMTLGMKKLKEEMEGVVKELAENNHILERFGSLTMDGGLRNVDCL
For the molecule B2, the binding result in assay [4] is recorded as “no binding”.

B3: 3XFLAG-tagged IKKε (protein, UniProt Q14164 1-716)
chain: MQSTANYLWHTDDLLGQGATASVYKARNKKSGELVAVKVFNTTSYLRPREVQVREFEVLRKLNHQNIVKLFAVEETGGSRQKVLVMEYCSSGSLLSVLESPENAFGLPEDEFLVVLRCVVAGMNHLRENGIVHRDIKPGNIMRLVGEEGQSIYKLTDFGAARELDDDEKFVSVYGTEEYLHPDMYERAVLRKPQQKAFGVTVDLWSIGVTLYHAATGSLPFIPFGGPRRNKEIMYRITTEKPAGAIAGAQRRENGPLEWSYTLPITCQLSLGLQSQLVPILANILEVEQAKCWGFDQFFAETSDILQRVVVHVFSLSQAVLHHIYIHAHNTIAIFQEAVHKQTSVAPRHQEYLFEGHLCVLEPSVSAQHIAHTTASSPLTLFSTAIPKGLAFRDPALDVPKFVPKVDLQADYNTAKGVLGAGYQALRLARALLDGQELMFRGLHWVMEVLQATCRRTLEVARTSLLYLSSSLGTERFSSVAGTPEIQELKAAAELRSRLRTLAEVLSRCSQNITETQESLSSLNRELVKSRDQVHEDRSIQQIQCCLDKMNFIYKQFKKSRMRPGLGYNEEQIHKLDKVNFSHLAKRLLQVFQEECVQKYQASLVTHGKRMRVVHETRNHLRLVGCSVAACNTEAQGVQESLSKLLEELSHQLLQDRAKGAQASPPPIAPYPSPTRKDLLLHMQELCEGMKLLASDLLDNNRIIERLNRVPAPPDV
Regarding B3, the binding entry in assay [4] was “no binding”.
